Laboratory results: the RNAGym collection of RNA variant scans (doi:10.7554/elife.90254)
The source gives no read counts; variants with many changes may rest on few reads.

B1: OR4K15 (parent)
chain: GUUAACGGUCAUAGGCCAUGGAAACUAGGAGCACCAUUUCGCUGCCAGUGAAGAAAUGAACAAAGAAAAUCUGGGCCAGGCAGGCAUCAAAAGAAAUAGUCUUGCGCUCAACCAGAAAGUCUGUAAUCAUUUUAAGGGUA

Variants of: B1
Test: self-cleavage, relative activity (ratio to wild type); higher = more cleavage; in vitro, sequencing; the parent is a self-cleaving ribozyme
A55G A67G A114U gave a self-cleavage of 0.08.
Work on U39C A56G A116G yielded a self-cleavage of 0.63.
Work on A24G U26A U43C yielded a self-cleavage of 1.18.
A18G A91G A111G A114G showed a self-cleavage of 0.02.
A55G A63G A68G gave a self-cleavage of 0.28.
In the case of U2C U19C U70C A117U, the self-cleavage is reported as 0.23.
A11G A54G A96G gave a self-cleavage of 1.41.
U49C A54G U133C showed a self-cleavage of 2.07.
In the case of U57C A82U A111G, the self-cleavage is reported as 0.03.
For A94G U100G C105A A135U, the self-cleavage was 0.01.
With A33U A55G A66U U87G the self-cleavage was 0.89.
Work on U19C A52G A55C A91G yielded a self-cleavage of 0.24.
Work on A13G U70C A114G U132C yielded a self-cleavage of 0.31.
For A13G U100C U120A, the self-cleavage was 1.51.
For U37C U124C A140U, the self-cleavage was 0.93.
Work on A5G A62G A92G yielded a self-cleavage of 0.53.
For U3G C17U A24C G83A, the self-cleavage was 2.16.
For A91U U124A U130C, the self-cleavage was 0.33.
For C42A A68G A89G U131C, the self-cleavage was 0.32.
Variant A11G A18G G74C A135G has a self-cleavage of 0.44.
For U2C U39A U49C A78U A116G G136U, the self-cleavage was 0.24.
For U2C U37C G136U, the self-cleavage was 1.71.
A27G U70C A114U U127C gave a self-cleavage of 0.04.
Variant A11U U19C A33U A56G A94G A110G has a self-cleavage of 0.18.
U26A A66G A134G showed a self-cleavage of 1.2.
For A67G A68G A118G, the self-cleavage was 0.59.
Work on A30G A47G U103C U122C yielded a self-cleavage of 0.54.
A30G A47G U87C A94G showed a self-cleavage of 1.45.
A89U A111G A116U A135G showed a self-cleavage of 0.
Variant A33G A111U A116G has a self-cleavage of 0.03.
With A54U A59G A69G the self-cleavage was 1.38.
Variant A89U A110G A129G has a self-cleavage of 0.09.
For U39A U43C A78U, the self-cleavage was 0.36.
U9C A91G A94G gave a self-cleavage of 0.66.
Work on A33U A55G G136A yielded a self-cleavage of 1.62.
Work on U100A U108A A129G U139C yielded a self-cleavage of 0.01.
In the case of U19C U57C A66G A110G A117G C121A, the self-cleavage is reported as 0.13.
In the case of A36G A51G A63G, the self-cleavage is reported as 2.08.
With A13G A23G A62U A69U the self-cleavage was 0.91.
For A36G A66G U70C U127C, the self-cleavage was 0.42.
For A11U A68G U72C A82G A96G, the self-cleavage was 0.23.
Variant A23G A54G A110G has a self-cleavage of 0.14.
Work on A30G A36U A98G U108C U127C yielded a self-cleavage of 0.01.
A22G A51G U122C gave a self-cleavage of 1.15.
For U19C A23C A86G A111G U130C, the self-cleavage was 0.01.
Variant U70C A110G A129G has a self-cleavage of 0.
In the case of A59G A66U A89G U103C, the self-cleavage is reported as 0.07.
Variant G7U A52G A55G A60G A114G U127A has a self-cleavage of 0.2.
U2C A27G A60G gave a self-cleavage of 1.95.
Work on A68G U70C A114G yielded a self-cleavage of 0.1.
With U9A A56G U57C the self-cleavage was 0.49.
A52U A59G C76G U122C gave a self-cleavage of 0.02.
Work on A47G U131C G137A yielded a self-cleavage of 0.49.
In the case of U3A A62G A96G, the self-cleavage is reported as 1.22.
With A69G U70C A96G A129G the self-cleavage was 0.09.
Work on A52G A82G A110U yielded a self-cleavage of 0.7.
Variant U19A A22G U108C has a self-cleavage of 0.06.
A11G A52C A66G G123A showed a self-cleavage of 1.23.
For A18G U43C A64U A90G C128A, the self-cleavage was 0.77.
For A91G U103C U108C, the self-cleavage was 0.01.
U38C A68G A82G A86G showed a self-cleavage of 0.49.
Work on A56G U102C U120C yielded a self-cleavage of 1.36.
In the case of A36G A55G A68G U97C U103C, the self-cleavage is reported as 0.17.
Variant G15U A18G U19C A27G G29A U43C U72G A91G has a self-cleavage of 0.16.
Variant U19A C45U A52G U87C A110G has a self-cleavage of 0.15.
Work on G44C A63U U132C yielded a self-cleavage of 2.38.
In the case of A11C A82G G84C, the self-cleavage is reported as 0.1.
For A86G C105U U108C, the self-cleavage was 0.01.
Variant A23U U43A U72C has a self-cleavage of 0.2.
Variant U12C A47G A64G A110U has a self-cleavage of 0.37.
In the case of A64G A91G U103A U122C, the self-cleavage is reported as 0.86.
A18U A59U A111G showed a self-cleavage of 0.08.
Work on A36C U57C A92G yielded a self-cleavage of 0.63.
For A24G U39A A68C A126G, the self-cleavage was 1.16.
Variant A27G U39C G50A A51G A63G A116G has a self-cleavage of 0.34.
Variant A54U A59G U100G has a self-cleavage of 1.55.
Variant U37C U38A U57C A86C U87C A94G has a self-cleavage of 0.58.
Work on A22G A30G U87G A94G yielded a self-cleavage of 0.68.
Variant A11G C85U C112A has a self-cleavage of 0.05.
With G58A A118G U139C the self-cleavage was 0.51.
A56G U87C A110U A114U gave a self-cleavage of 0.02.
In the case of A23G A68G A135U U139C, the self-cleavage is reported as 0.88.
A13G G74A C76U showed a self-cleavage of 0.33.
With A5C A59U A90C A134G the self-cleavage was 0.53.
Work on A11C U38C A59G A67U yielded a self-cleavage of 1.51.
A13G A56C A69G U132C showed a self-cleavage of 0.46.
C46U C77U A91G A96U gave a self-cleavage of 1.49.
In the case of A68G G75C A116G, the self-cleavage is reported as 0.01.
With A62G G74A A118U the self-cleavage was 0.05.
With U9C A33G U139C the self-cleavage was 1.31.
For A5G U9C A22G A27G A67G A117G A118G, the self-cleavage was 0.44.
Work on A51G A52G A110G yielded a self-cleavage of 0.14.
For A11U G31A A110G U124C, the self-cleavage was 0.15.
In the case of C25U A27U A52G U100C U120C, the self-cleavage is reported as 1.25.
In the case of A11G A78U A90G U108C, the self-cleavage is reported as 0.04.
A11G U19A U102C showed a self-cleavage of 1.22.
G14A A54G U127C showed a self-cleavage of 0.63.
U39C A60G U122A gave a self-cleavage of 0.82.
Variant A62U A126G U127C has a self-cleavage of 0.61.
Variant U3C A55G A66G has a self-cleavage of 0.
For A22U A23U A90G, the self-cleavage was 0.96.
Work on U9C A11U A51G A52G A95G U127A yielded a self-cleavage of 2.26.
Variant A11G A60C A68G A95G has a self-cleavage of 0.57.
Variant A11G U43A A95G U102C has a self-cleavage of 0.84.
G15A A33U A56G showed a self-cleavage of 0.98.
Variant U9C A68G A78G A94G A118G has a self-cleavage of 0.11.
For A23U A78U U103C, the self-cleavage was 0.17.
U19C U38C C42U U131C U132C showed a self-cleavage of 0.7.
In the case of A55G A63G A125G A126G, the self-cleavage is reported as 0.15.
Variant U38C A78G U108C A116U has a self-cleavage of 0.
G29A A54G A140G gave a self-cleavage of 0.54.
With U108C A110C A129G the self-cleavage was 0.
For U49C A52G A59G U70C U122C A129G, the self-cleavage was 0.16.
Work on A23G A55G A111G A135U yielded a self-cleavage of 0.03.
Variant U2C A55G A68G has a self-cleavage of 1.64.
In the case of A5G U37C G136A, the self-cleavage is reported as 1.25.
In the case of A18G A24U A78U A116U A117G, the self-cleavage is reported as 0.04.
In the case of A69G A117C U127A, the self-cleavage is reported as 1.69.
For A47G A96G A118G, the self-cleavage was 0.71.
A51G A91G U120A gave a self-cleavage of 0.81.
With A23G U38A A118C the self-cleavage was 0.84.
In the case of A27G A82G U100C, the self-cleavage is reported as 1.6.
For C6A U37C U38C A54U A117G, the self-cleavage was 1.66.
U103C A117G U132C showed a self-cleavage of 1.14.
A23G A89G U108A showed a self-cleavage of 0.01.
With A67G U72A G83A A95G U120G U132C the self-cleavage was 0.28.
A111G U120C U139C gave a self-cleavage of 0.
Variant A36G A62G A68U has a self-cleavage of 1.4.
Work on C42U U49C U57C G115A U139C yielded a self-cleavage of 0.01.
Work on U26C U57A U100C yielded a self-cleavage of 1.66.
Work on U39C A47G A78G U100C A114G yielded a self-cleavage of 0.09.
In the case of A33G A62U U97C, the self-cleavage is reported as 1.13.
Variant A13G U43C U57C A67G A78G A111G has a self-cleavage of 0.03.
With G7A A55G U130C the self-cleavage was 1.38.
Work on A27G U43C A56G A111G yielded a self-cleavage of 0.04.
In the case of A47U U57G A86G, the self-cleavage is reported as 1.43.
With U9C A23U U37C A110G U131C the self-cleavage was 0.13.
Work on A33G A60C A67G A118U yielded a self-cleavage of 0.21.
Work on U39A A111U U122A A140G yielded a self-cleavage of 0.02.
For A68G A90G U100A, the self-cleavage was 0.32.
A59G A78G A140G showed a self-cleavage of 0.33.
With U87C U100C A110G U130C the self-cleavage was 0.26.
Variant A33U U87C A90G U131C has a self-cleavage of 0.14.
For A30G A55G U102C U103C A116U U131C, the self-cleavage was 0.
Variant A22G A91G U100C U102C has a self-cleavage of 0.49.
Variant U37C A62C A67G A86U U87A A91G has a self-cleavage of 2.27.
Work on A30G U100C A135U yielded a self-cleavage of 1.32.
Variant A4G A5G A54G has a self-cleavage of 0.78.
With A66G A96G U97A the self-cleavage was 1.99.
With A23G G44U A55G A78G A95G U122C the self-cleavage was 0.06.
Work on A55G A86G A114G U131C yielded a self-cleavage of 0.2.
A67G U108C A140U showed a self-cleavage of 0.02.
U19C A52G A140G showed a self-cleavage of 1.02.
In the case of U3C U72C A78G A92G, the self-cleavage is reported as 0.15.
For U57A A60G A94G U122A, the self-cleavage was 0.78.
In the case of U37C U49C A129G, the self-cleavage is reported as 0.78.
A11U A18G A24G A54G A68G G79A gave a self-cleavage of 0.15.
In the case of U3C A47G U72G U130C U131A, the self-cleavage is reported as 0.08.
C10A A18G G83A U100C U130C U139C gave a self-cleavage of 1.07.
Work on A18G A24G A67G A89G A91G A92G U124C yielded a self-cleavage of 0.65.
In the case of A54G A56G U72C, the self-cleavage is reported as 0.23.
With A62G A63G A90U the self-cleavage was 1.25.
In the case of A36U A118G C128U U130C, the self-cleavage is reported as 1.07.
Variant U12C A24G A78C A95G A117G has a self-cleavage of 0.29.
A23G U97C U103C gave a self-cleavage of 0.09.
Work on A78G U87C A91G U127C yielded a self-cleavage of 0.03.
Variant A18G A68G A82G A90G A118G has a self-cleavage of 0.09.
